Experimental data as given in the BET-seq Pho4 binding data (Le et al. 2018).
This is one part of the list. These are noisy estimates, calculated here from bound and input reads.

Each sequence was assayed against T1, Pho4 (S. cerevisiae) (UniProt P07270) (assay: relative binding free energy (BET-seq); higher = weaker binding). Details: reference: library average.
T1 sequence: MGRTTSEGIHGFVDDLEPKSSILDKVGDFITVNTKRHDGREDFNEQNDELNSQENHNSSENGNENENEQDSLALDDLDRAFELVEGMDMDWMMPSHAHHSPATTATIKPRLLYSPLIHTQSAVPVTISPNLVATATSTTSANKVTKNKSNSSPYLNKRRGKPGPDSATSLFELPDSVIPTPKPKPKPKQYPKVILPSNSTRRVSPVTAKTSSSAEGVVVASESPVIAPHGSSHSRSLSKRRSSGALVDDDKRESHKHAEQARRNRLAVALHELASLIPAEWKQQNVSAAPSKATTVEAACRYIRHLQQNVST

Sequence	relative binding free energy [kcal/mol]
TGTAGCACGTGATGAG	0.01
ATAGCCACGTGGGCTG	-0.13
ATGTTCACGTGAGAAT	0.3
GGCTGCACGTGAGGTC	0.44
AGTCTCACGTGTAGGC	0.29
GTCAACACGTGTTGTT	0.05
TGGCTCACGTGCTTGG	0.32
TGTGGCACGTGGGCAA	-0.23
CTTGTCACGTGTGGTC	0.19
TGGTTCACGTGGCCTT	0.23
ATCGTCACGTGGGGGG	-0.07
GCGCGCACGTGGGTTG	-0.19
GGGACCACGTGTGCGG	0.08
TTGATCACGTGGGTAC	0.04
TGTGTCACGTGGGGCA	-0.05
TGTTTCACGTGAGGGC	0.41
TTAGGCACGTGCGTAT	-0.24
TATGTCACGTGAGTGG	0.25
TTTAGCACGTGTGTAG	-0.08
TCAGGCACGTGGGGAA	-0.16
AAATACACGTGTTTTT	0.04
GCTTTCACGTGGGTTA	0.17
TTTGTCACGTGTGATC	0.24
GGGGTCACGTGTGCAT	0.14
CAAAACACGTGGGGTG	-0.18
CGAGTCACGTGGTACG	0.2

Sequence	relative binding free energy [kcal/mol]
GGTCGCACGTGAGTTA	0.15
ATAATCACGTGTGAGT	0.18
TCTTACACGTGGTGTG	-0.11
TGTTGCACGTGCTATA	-0.19
TTTGACACGTGTATCA	0.06
TGATTCACGTGTGCAT	0.12
CTAGGCACGTGTAGTA	-0.16
TGTAACACGTGGGCGG	-0.15
TTGAGCACGTGTAGCT	-0.12
TAGTTCACGTGTTGGG	0.29
AGTATCACGTGAGAGG	0.27
TTGGGCACGTGAATTG	0.3
ATGGGCACGTGAGGAC	0.13
GTTTTCACGTGAAAGC	0.3
GAGGTCACGTGTGTGT	0.18
TTCTTCACGTGATGTA	0.37
TAAAGCACGTGTGGCT	0.05
TTTTCCACGTGGATTT	0.17
GATTTCACGTGTATTT	0.26
TTCGGCACGTGCTGGT	-0.1
AAGTACACGTGAGGGT	0.07
TGACTCACGTGTGGAG	0.23
TCATGCACGTGGGTTT	-0.16
TTTAGCACGTGAGTTC	0.18
GGGGTCACGTGCCTGT	-0.14
AGGGACACGTGTGGTA	0.04

Sequence	relative binding free energy [kcal/mol]
AATTGCACGTGGGTCG	-0.13
GAAGACACGTGGGGAG	-0.04
TTAGACACGTGGATGA	-0.11
GGTTTCACGTGCTATA	0.11
GCGTACACGTGGTTTG	0.15
ATTTTCACGTGAATGA	0.3
TATAGCACGTGCTAGT	-0.06
CGGGGCACGTGTTGTA	-0.08
CGTACCACGTGAGGGG	0.15
GGAGGCACGTGAAGTT	0.07
ATTCACACGTGGTGTC	0.02
AATTTCACGTGAATGA	0.38
TATTGCACGTGTTGGT	0.09
GTTGTCACGTGGATAA	0.09
TAGAGCACGTGACAGG	0.08
TTGGCCACGTGTGGGA	0.01
TTTAGCACGTGTCGTA	-0.02
TAAACCACGTGGGTGT	-0.07
TAGGACACGTGTGGTG	0.07
TGGTACACGTGCAGGG	-0.12
TTGTTCACGTGTATGG	0.29
TGAGTCACGTGTAGGT	0.04
GTTTTCACGTGCGATT	0.36
GGAGACACGTGCGAGG	-0.05
AGCAGCACGTGGTATT	-0.05
GGAAGCACGTGTCTGT	0.03

Sequence	relative binding free energy [kcal/mol]
AAGGTCACGTGTATTG	0.08
GAAGGCACGTGGAGTG	-0.12
GGTTGCACGTGTGCGT	0.1
TGGTACACGTGTGTAT	0.12
CGGTCCACGTGGTAGG	-0.1
TGTTTCACGTGTTCGT	0.33
GTTACCACGTGTTTAG	0.06
ATTTGCACGTGGTTGA	-0.07
TATAGCACGTGTTGGG	-0.06
TTGATCACGTGATTAG	0.23
GGCGTCACGTGGGGGA	-0.1
AGGTACACGTGTTATT	-0.03
TGGGGCACGTGGAAAG	0.01
GCTTGCACGTGTGCGG	-0.02
CATATCACGTGTTTGT	0.17
GTTTACACGTGGAAGC	0.35
GTGTCCACGTGGCGGT	-0.08
AGTTGCACGTGGAGGT	-0.07
GGTATCACGTGGAATT	0.24
GGGCGCACGTGGGGCA	-0.28
CTAGGCACGTGTGTTA	-0.2
TGGCCCACGTGGGGTA	-0.27
ATGGACACGTGGCGGT	0.07
GGGGGCACGTGCTAGA	-0.26
ATCCTCACGTGGGGTG	0.09
GCAGGCACGTGTGTAT	0.05

Sequence	relative binding free energy [kcal/mol]
AGGGGCACGTGTTAGA	-0.07
CGGGACACGTGGGGGT	-0.13
ATGTACACGTGTGGGG	0.1
GTGGTCACGTGTCTCG	0.15
ATGCTCACGTGTTCTG	0.22
GTGATCACGTGGATTG	0.04
TCAATCACGTGGGTGG	0.11
GCGTTCACGTGGGTCG	0.13
GTTTACACGTGGGGCA	0.03
GTTGGCACGTGTGGAA	-0.03
GAATTCACGTGTTTCT	0.44
GTACTCACGTGTTTGG	0.32
GTTGGCACGTGCGCAA	-0.04
GGTGTCACGTGGCTTG	0.13
GGGGACACGTGTTTGG	0.12
CTGTACACGTGGCAGG	0.14
TGCGACACGTGTTGAG	0.12
AGGCTCACGTGGGGAA	0.09
GTTAGCACGTGTAAGG	0.17
GCGTTCACGTGTTGCG	0.33
ACGTGCACGTGTTGTT	-0.06
GTTGGCACGTGCCTTG	-0.02
GAATTCACGTGGGAGT	0.33
TTTTTCACGTGTACCT	0.27
GATCACACGTGGTGGG	0.04
GGTCACACGTGGGGTA	-0.01

Sequence	relative binding free energy [kcal/mol]
TTGTGCACGTGTGGGA	0.02
GTTCGCACGTGGATTT	0.06
GAAAACACGTGGGTTG	-0.17
GCGCGCACGTGGGTTA	-0.08
GTTGTCACGTGTAGTA	0.21
TGAGGCACGTGGAAGT	-0.11
TAGGTCACGTGCCGGG	0.06
AGCTTCACGTGAGTTA	0.49
TGTGGCACGTGTCAGT	-0.18
TTATGCACGTGGAGCA	-0.02
TTCATCACGTGATAGG	0.17
AGTTTCACGTGGTATG	0.31
TGTGTCACGTGACTTT	0.1
GCGTTCACGTGTGGAT	0.23
TAAAGCACGTGGCGTG	-0.09
TAGATCACGTGGATTG	0.35
AAGAGCACGTGAGTTG	0.2
TGTAGCACGTGCGGTT	-0.07
TCAGGCACGTGTGTTG	0.02
ATTTGCACGTGAGTCT	0.13
TGTAGCACGTGAATGA	0.07
CGTATCACGTGTTAGG	0.1
GGGCTCACGTGAGTTA	0.36
CTAGTCACGTGGGGGT	-0.19
TTTAACACGTGTGTAG	-0.01
TAGCACACGTGGTATG	-0.07

Sequence	relative binding free energy [kcal/mol]
GAAAGCACGTGAGGGG	0.16
GACGTCACGTGGGTTT	0.06
GTACTCACGTGTTAGG	0.17
TGCAGCACGTGTTAGT	0.03
ATGGTCACGTGGTCGC	-0.04
TGCGTCACGTGCTTGG	-0.04
CCTTTCACGTGTTGGG	0.25
TATGACACGTGTTGTC	0.09
CGTGCCACGTGAGTGG	0.03
TACAGCACGTGTGTTG	-0.08
CTAAGCACGTGAAGGG	0.17
GTTTACACGTGTTGCG	0.24
GTTCTCACGTGGGGCG	0.05
ACCTGCACGTGGTGGG	-0.2
GCTAGCACGTGTAAGG	0.13
ATTGGCACGTGAGGAT	0.14
AGATGCACGTGTTCGT	-0.15
TGTGGCACGTGGTTGA	-0.14
CGGGTCACGTGGCGAT	0.15
ATTTGCACGTGGCATT	-0.09
GCATTCACGTGTGGAG	0.35
ATTAGCACGTGTCGTA	-0.16
GGCTGCACGTGAGAGG	0.34
CGTGACACGTGTGGGA	-0.01
TTTTTCACGTGTTCAA	0.26
TGAAGCACGTGCTGGG	-0.14

Sequence	relative binding free energy [kcal/mol]
GTAAACACGTGTAAGT	0.14
TTGGGCACGTGACTAG	-0.02
AGCGTCACGTGTGAAT	0.1
GAAGGCACGTGTCAGG	-0.04
TAACGCACGTGAGGGG	0.18
GGCGGCACGTGTTGCG	-0.12
AGTTGCACGTGAGGCG	0.21
CGTAGCACGTGTAGGG	0.01
TGGGTCACGTGGTTGA	0.07
GTTAGCACGTGGAGGG	0.03
TACTTCACGTGTGTTT	0.28
GAGTACACGTGGAATG	0.24
TACTGCACGTGGGTTT	-0.19
TTATGCACGTGGGTTG	-0.17
TATTACACGTGCATTG	-0.01
TACGTCACGTGCATGT	0.13
GAGTGCACGTGGCGTA	-0.19
AAAGGCACGTGACGGG	0
GCTGTCACGTGGTGGG	0.02
AGCTGCACGTGAGTGT	0.16
GTTCGCACGTGATGTG	0.11
GGTAACACGTGTTGAT	0
TACGGCACGTGCGTGG	-0.19
AGGGACACGTGTTCGG	-0.14
ACTTGCACGTGGTGTA	0.04
AGGTTCACGTGATGGA	0.33

Sequence	relative binding free energy [kcal/mol]
GTATGCACGTGGTCGA	0.05
TAGAACACGTGGGGGA	-0.1
TCCGACACGTGGGGTG	-0.08
ACGTGCACGTGCGTTT	-0.11
TAAATCACGTGGCTGT	0.14
AGTAACACGTGAGGTA	0.05
TGTAGCACGTGGCAGG	-0.1
AATGTCACGTGATTGA	0.16
AGTTGCACGTGGGGCT	-0.2
GAATTCACGTGTCGGG	0.29
TTACTCACGTGTTAGT	0.14
ATTGTCACGTGTTTTT	0.19
TGCAGCACGTGTAAGG	-0.03
TAGGTCACGTGAACAT	0.36
GTGGGCACGTGATCGC	0.02
TGTAGCACGTGTAAGC	0.04
GTCATCACGTGTAAGG	0.31
GGACTCACGTGTTAGT	0.3
GGGAGCACGTGCGGAG	-0.09
CAATACACGTGTGTTG	0.09
GTATGCACGTGTGTCT	-0.07
TATTCCACGTGAAGGT	0.27
